# Data from PubChem BioAssay AID485297 (National Center for Advancing Translational Sciences (NCATS), 2010).
# Hit rate of the full screen: of about 320,000 compounds, about 9,100 (2.8%) were called active. Inconclusive results, whose numbers are uncertain, are shown with a selection of clear calls. Calls come from the whole dose curve; as a rule, active = well fitted activation curve with a large enough effect; inconclusive = small, poorly fitted or top-dose-only effect; inactive = no such curve, though single readings can be large or run the other way. No potency is given beside an inconclusive call; the fits are too rough.
# Test: qHTS Assay for Rab9 Promoter Activators; note: nearly all actives have a fitted effect of over 60% in size; for activation, negative = inhibition: % of control where 0% means no effect
# Settings: Huh7 Rab9 promoter-luciferase reporter, luminescence, 24 h; series mostly up to 9.22 µM; activation, negative = inhibition: at the top concentration
# Procedure, shortened: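 Huh7 cells stably carrying Rab9 promoter–luciferase reporter, plated 1500 cells/well, compound added after 2 h and incubated 24 h at 37 °C; luciferase luminescence then read after 10 min with detection reagent.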
# Potency is the fitted concentration of half-maximal effect; tags give direction and shape of the fitted curve.
SMILES,Potency,"activation, negative = inhibition"
Cc1ccccc1NC(=S)NNC(=O)c1cccc(Br)c1,"inconclusive [activator, single point]",
Cc1sc2nc(C3CC3)nc(N3CCN(C(=O)c4ccc(F)cc4)CC3)c2c1C,,inactive: 4.96%
CCC(=O)N(CC)c1nc(-c2ccc(OC)cc2)cs1,"inconclusive [activator, partial curve]",
Cc1cc(C)c(NC(=O)CN(C)C(=O)CNC(=O)c2cccs2)c(C)c1,,inactive: -0.869%
Cc1[nH]c2ccc(C(=O)NC3CCCC3)cc2c1C,"inconclusive [activator, single point]",
CC(/C=N/NC(=O)c1cccnc1)=C\c1ccccc1,"inconclusive [activator, partial curve]",
COc1ccc(CCNC(=O)CSc2nc(O)c(CCC(C)C)c(=O)[nH]2)cc1OC,,inactive: 2.98%
Nc1ccccc1SCc1csc(-c2ccc(Cl)cc2)n1,"inconclusive [activator, partial curve]",
NS(=O)(=O)c1ccc(CNC(=O)CNC(=O)c2ccc(Br)o2)cc1,"inconclusive [activator, single point]",
COCCN(Cc1cc2cc(C)c(C)cc2nc1Cl)C(=O)N1CCOCC1,,inactive: 7.68%
COC(=O)c1ccc(COc2ccc(C)cc2[N+](=O)[O-])o1,"inconclusive [activator, single point]",
CCOC(=O)c1sc(NC(=O)c2ccc(S(=O)(=O)N3CCOCC3)cc2)nc1-c1ccccc1,,inactive: -0.538%
C/C(=N\NC(=O)c1ccn[nH]1)c1cn(C)nc1C,"inconclusive [activator, single point]",
O=C1CC(c2ccccc2)CC(=NCCO)/C1=C(\O)CCCN1C(=O)c2ccccc2C1=O (centres undefined),,inactive: -0.265%
Cc1cc2sc3nc(=O)n(-c4ccccc4)c(=O)n3c2cc1C,active: 3.16 µM,
O=C(Nc1ccccc1)Nc1ccc(C(=O)N2CCCC2)cc1,active: 0.355 µM,
CCCCCCOC(=O)c1ccc(N)cc1,"inconclusive [activator, single point]",
CCN(CC)c1ccc(/C=N/OCC(=O)Nc2cccc(C)c2)cc1,,inactive: 1.61%
O=C(O)c1ccc(NCCc2ccc(Cl)cc2)c([N+](=O)[O-])c1,,inactive: -2.51%
C/C(=N/OCC(=O)Nc1ccccc1)c1cccs1,"inconclusive [activator, single point]",
O=C(Nc1ccc(Cl)c(S(=O)(=O)N2CCOCC2)c1)c1ccc2c(c1)OCCO2,,inactive: 4.18%
COc1cc(OC)cc(C(=O)Nc2nc(CC(=O)NC(C)c3ccccc3)cs2)c1 (centres undefined),,inactive: -1.25%
Cc1ccc(N(O)C(=O)NCCCCNC(=O)N(O)c2ccc(C)cc2)cc1,"inconclusive [activator, partial curve]",
COc1ccc2nc(NC(=O)c3cccc(-c4cc5ccccc5oc4=O)c3)sc2c1,"inconclusive [activator, single point]",
CC(/C=C/c1ccccc1)=N\Nc1ccccc1[N+](=O)[O-],"inconclusive [activator, partial curve]",
Cc1cc2nc(-c3ccc(NC(=O)C(C)C)cc3)oc2cc1C,active: 0.631 µM,
CCc1ccc(NCc2nc(-c3ccccc3)no2)cc1,,inactive: 12.8%

SMILES,Potency,"activation, negative = inhibition"
Fc1cccc(CSc2nc3ccncc3[nH]2)c1,"inconclusive [activator, partial curve]",
CC1CCN(C(=O)c2ccc(-c3ccccc3Cl)o2)CC1,active: 0.316 µM,
N#C/C(=C\c1ccccc1)c1ccccn1,"inconclusive [activator, single point]",
CCOc1ccc(NC(=O)CSc2nc(NS(=O)(=O)c3ccc(C)cc3)cc(=O)[nH]2)cc1,,inactive: 1.27%
Nc1ccc2oc3ccc(N)cc3c(=O)c2c1,active: 3.98 µM,
CCCOC(=O)c1ccc(Oc2cn[nH]c2-c2ccc(OCC)cc2O)cc1,"inconclusive [activator, single point]",
Cc1cccc(NC(=O)NC(=O)c2ccccc2)n1,"inconclusive [activator, single point]",
O=C(Nc1ccc(Cl)cc1)c1cc(-c2cccs2)on1,,inactive: 4.94%
Brc1ccc(/C=N/Nc2ccc3ccccc3n2)cc1,active: 2.51 µM,
COc1ccc2[nH]c(C(=O)Nc3cccc(C)n3)cc2c1,active: 0.501 µM,
O=C(NCC1CC1)Nc1ccc(Cl)cc1,"inconclusive [activator, partial curve]",
COC(=O)c1cnn(-c2nc(-c3ccccc3)cs2)c1N,"inconclusive [activator, partial curve]",
O=c1c2ccccc2nc(COc2ccccc2)n1/N=C/c1cn[nH]c1-c1ccccc1,,inactive: -10.6%
O=C(/C=C/c1ccccc1)NC(=O)c1ccccc1O,"inconclusive [activator, single point]",
Cc1ccc(C(=O)/C=C/c2cn(CN3CCN(C)CC3)c3ccccc23)cc1,"inconclusive [activator, partial curve]",
Cn1nc(C(F)(F)F)c(-c2ccc(Br)cc2)c1NC(=O)Nc1ccc(F)cc1F,,inactive: -1.44%
O=C(CSc1nnc(-c2ccc(OC(F)F)cc2)o1)N1CCOCC1,"inconclusive [activator, partial curve]",
CCCc1ccc(C(=O)NC(=O)c2ccccc2O)cc1,"inconclusive [activator, partial curve]",
CCOC(=O)C1CCN(S(=O)(=O)c2cccc(-c3cn4cc(C)ccc4n3)c2)CC1,,inactive: -10.4%
Clc1ccc2noc(-c3ccccc3)c2c1,,inactive: 0.947%
Cn1cccc1-c1cc(C(=O)N/N=C/c2ccccc2Cl)[nH]n1,"inconclusive [activator, partial curve]",
O=c1cc(/C=C/c2c(F)cccc2Cl)[nH]c2ccccc12,"inconclusive [activator, single point]",
CN(C)c1ccc(/C=C2\SC(=O)N(CCc3nnc(N)s3)C2=O)cc1,"inconclusive [activator, full curve, poor fit]",
COc1c(C(=O)NNC(=O)c2ccccc2)csc1Br,active: 2.82 µM,
O=C(Nc1ccc(OC(F)F)c(Cl)c1)c1ccccn1,active: 0.631 µM,
CC(=O)Nc1ccc(C(=O)CSc2nnnn2C2CCCC2)cc1,"inconclusive [activator, partial curve]",
Fc1ccccc1-c1nc(-c2ccncc2)no1,active: 1.78 µM,

SMILES,Potency,"activation, negative = inhibition"
COc1ccc(C(=O)NCCSC2CCCCC2)cc1,"inconclusive [activator, single point]",
c1ccc2[nH]c(CSc3nccs3)nc2c1,,inactive: 14.2%
O=C(Nc1nc2ccccc2[nH]1)c1ccc(F)cc1,active: 0.316 µM,
O=C(NCC(O)c1ccccc1)c1cccs1 (centres undefined),"inconclusive [activator, partial curve]",
Cc1ccccc1-c1nc(-c2ccccn2)no1,active: 0.447 µM,
CN(C(=O)COC(=O)c1cc(=O)[nH]c2ccccc12)C1CCCCC1,"inconclusive [activator, single point]",
CC(C)C(NC(=O)OCc1ccccc1)C(=O)OCC(=O)N1CCCCC1 (centres undefined),"inconclusive [activator, single point]",
O=C(c1noc2c1CCCC2)N1CCc2ccccc2C1,"inconclusive [activator, partial curve]",
COc1ccc(C(=O)CCc2ccccc2)cc1,"inconclusive [activator, single point]",
Cc1c(/C=N/Nc2nc3ccccc3[nH]2)c2ccccc2n1C,"inconclusive [activator, partial curve]",
O=c1oc2c(CN3CCCCCC3)c(O)ccc2cc1-c1nc2ccccc2[nH]1,"inconclusive [activator, partial curve]",
Cc1ccc(-c2cc(N)n(-c3ccccc3)n2)cc1,active: 2.82 µM,
COC(=O)c1ccc(NC(=O)c2ccc3nc(C)sc3c2)cc1,active: 0.708 µM,
Cn1cccc1C(=O)OCC(=O)Nc1ccc2c(c1)CCC2,"inconclusive [activator, single point]",
Cn1c(/C=N/NC(=O)c2ccccc2)nc2ccccc21,,inactive: 12.1%
N#C/C(=C\c1ccc(F)cc1)c1nc(-c2ccco2)cs1,"inconclusive [activator, single point]",
N#C/C(=C/c1ccc(N2CCCCCC2)o1)c1ccc(Cl)cc1,active: 3.98 µM,
O=C(N/N=C/c1ccccc1F)c1cccc2ccccc12,"inconclusive [activator, single point]",
CCCn1nnc(NC(=O)c2ccc(F)cc2)n1,"inconclusive [activator, partial curve]",
CC1CC(C)(C)Nc2ccc(OC(=O)c3ccco3)cc21 (centres undefined),"inconclusive [activator, partial curve]",
Cc1ccc2oc(-c3cccc(NC(=O)/C=C/c4cccc([N+](=O)[O-])c4)c3C)nc2c1,active: 4.47 µM,
CCn1c(CNC(=O)c2ccco2)nnc1SCCOc1ccccc1,"inconclusive [activator, single point]",
CN(c1ccccc1)S(=O)(=O)c1cccc(NC(=O)CSc2n[nH]c(N)n2)c1,,inactive: -4.26%
COc1ccc(NC(=O)CN(C)C(=O)c2ccccc2Sc2ncnc3sc(C)c(C)c23)cc1,,inactive: -0.855%
O=C(O)COc1ccc(/C=C/C(=O)c2ccc(C3CCCCC3)cc2)cc1,"inconclusive [activator, single point]",
